These results are taken from article PMC5389568 (Nucleic Acids Research, 2016).

This data set concerns the molecule itself. The data set is described as follows: crystal structure.

B1: MAX bHLH-leucine zipper domain ([…]) (domain or fragment)
chain: not shown
Consider B1, for which the binding result is “binds”.
